# Measurements as given in PubChem BioAssay (NCATS).
# Several values for one entry are separate records, joined by “and”; a condition that tells them apart may be missing. Equal entries are not always repeated. Some of the results follow. Further columns of the screen follow, without active or inactive calls. Compounds called inactive in the main read-out are mostly missing here. For some assays here: Potencies come from curve fits of mixed quality, noted in brackets.
# Tests used:
# [1] = qHTS Assay for Lipid Storage Modulators (AID 1519); details: Drosophila S3 cells, BODIPY lipid droplet/cell ratio, laser cytometry, cells loaded with oleic acid
# Summary of the method: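 Cells seeded at 5,000 per well were treated with compounds over a concentration series and loaded with oleic acid (400 uM, as added). Lipid droplet fluorescence (488 nm excitation, 500-530 nm channel) was read by laser-scanning cytometry and normalized to 20 uM Triacsin C.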
# [2] = qHTS Assay for Modulators of Human Peripheral Myelin Protein 22 (PMP22) Expression/Activity (AID 1967); details: Cell-based PMP22 reporter, dual-color luciferase ratio
# Summary of the method: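 Quantitative HTS in a mouse Schwann cell line expressing dual click beetle luciferases: Pmp22 promoter (green) and control EF-alpha promoter (red). After 24h treatment, corrected green/red signal ratio gave %Activity relative to untreated cells.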
# [3] = qHTS Validation Assay to Find Inhibitors of Chronic Active B-Cell Receptor Signaling (AID 485345); details: ABC-DLBCL cells, chronic BCR signaling reporter; measured here: CBR control luciferase (viability counter)
# Summary of the method: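 TMD8 ABC-DLBCL cells with dox-inducible green luciferase–IκBα fusion and red native luciferase; compounds 46 uM–3 nM, 4 h at 37C with doxycycline in 0.5% FBS IMDM. Green/red ratio normalized to basal and 10 uM MG-132.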
# [4] = qHTS assay for small molecule antagonists of peroxisome proliferator-activated receptor delta signaling (AID 588535); details: HEK293T PPARd-UAS-bla, beta-lactamase FRET ratio, 18 h; 460 nm channel;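 also: cells co-treated with a PPAR-delta agonist as stimulator during compound exposure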
# Summary of the method: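 Compounds tested in titration on PPAR-delta-UAS-bla HEK293T cells grown in charcoal/dextran-stripped serum (2%); beta-lactamase activity read via CCF4 emission at 460 and 530 nm.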
# [5] = qHTS assay for small molecule antagonists of peroxisome proliferator-activated receptor gamma signaling (AID 588537); details: HEK293 PPARg-UAS-bla, beta-lactamase ratio, antagonist mode; measured here: W460 blue channel
# Summary of the method: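 HEK293 cells, PPAR-gamma-UAS-bla, 3000/well. Pre-incubation 6-6.5 h, 37 C. Compound titration with rosiglitazone 50 nM final, 16 h. CCF4 dye, 2 h RT, dual-emission fluorescence.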
# [6] = qHTS assay for small molecule agonists of retinoid X receptor alpha signaling (AID 588544); details: HEK293T RXRa-UAS-bla, beta-lactamase reporter, 18 h; 530 nm emission
# [7] = Nrf2 qHTS screen for inhibitors: Validation (AID 493153); details: A549 ARE-Fluc reporter, 18-24 h; AC50: CellTiter-Fluor fluorescence read, measured here: cytotoxicity CellTiter-Fluor AC50; viability change: measured here: cytotoxicity max response
# Summary of the method: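 Concentration-response test in A549 ARE_Fluc reporter cells (5% FBS OPTI-MEM), compound exposure 18-24 h at 37°C, 5% CO2. Cell viability measured first by CellTiter-Fluor fluorescence; ARE-driven luciferase luminescence then measured as Nrf2 activity.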
# [8] = qHTS assay for small molecule antagonists of vitamin D receptor signaling (AID 588541); details: HEK293T VDR-UAS-bla, beta-lactamase ratio, antagonist mode; measured here: W460 blue channel (cell viability)
# [9] = qHTS assay for small molecule antagonists of retinoid X receptor alpha signaling (AID 588546); details: HEK293T RXRa-UAS-bla, beta-lactamase ratio, antagonist mode; measured here: W530 green channel, cytotoxicity proxy;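 also: cells stimulated with 9-cis-retinoic acid as agonist; % is scaled to controls: 0 for no effect and ±100 for the full control effect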
# Summary of the method: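 Beta-lactamase reporter inhibition, read as CCF4 fluorescence ratio (ex 405, em 460/530 nm) after 2 h at RT. HEK293T UAS-bla cells, 2500/well, were stimulated with 9-cis-RA at 500 or 100 nM final alongside test compound for 18 h at 37 C.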
# [10] = qHTS Assay for Inhibitors of PDE-IV (AID 607); details: HEK293 ACTOne CNG channel cells, membrane potential fluorescence; measured here: parental cell counter-screen;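 also: parental cells stimulated with forskolin 10 µM plus RO 20-1724 100 µM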
# Summary of the method: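 The readout is membrane depolarisation from a cAMP-sensing CNG channel, detected with a potential dye at ex 535/em 590. Cells were HEK293-derived (endogenous PDE-IV) at 1000 cells/well, titrated up to 22.9 uM final.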
# [11] = qHTS assay for small molecule antagonists of androgen receptor signaling (AID 588516); details: AR-UAS-bla HEK293, beta-lactamase ratio, antagonist mode, 16 h; measured here: W460 blue channel fit
# Summary of the method: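 Antagonist-mode qHTS: inhibition of R1881 (10 nM)-driven beta-lactamase expression in GripTite HEK 293 cells is measured after 16 h; values are Hill-derived IC50s normalized between R1881 and DMSO wells.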
# [12] = qHTS assay for small molecule antagonists of glucocorticoid receptor signaling (AID 588533); details: HeLa MMTV-bla, GRE beta-lactamase ratio, antagonist mode, 18 h; measured here: W530 channel AC50;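 also: cells stimulated with 2 nM dexamethasone as agonist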
# [13] = measured here: cell count channel max response
# [14] = measured here: cell number channel AC50
# [15] = measured here: lipid (BODIPY) channel AC50
# [16] = measured here: lipid channel max response
# [17] = measured here: green reporter channel AC50, mouse Pmp22 promoter in mouse Schwann cells
# [18] = measured here: red reporter channel AC50, EF-alpha promoter control reporter in MSC80 mouse Schwann cells
# Tags tell the direction and shape of the fitted curve.
compound,measurement,setting,value
COC(=O)C1=C(C)NC(C)=C(C(=O)OC)C1c1ccccc1[N+](=O)[O-],max response,[1]; [13],101% and -1.76%
same,AC50,[1]; [14],"3.16 µM [rising, full curve]"
same,AC50,[1]; [15],"3.16 µM [rising, full curve]"
same,max response,[1]; [16],125% and -51.2%
same,AC50,[2]; [17],"53.6 µM [falling, partial curve]"
same,AC50,[2]; [18],"75.7 µM [falling, single point]"
same,AC50,[3],"14.6 µM [falling, partial curve]"
same,max response,[4],-66.7%
same,AC50,[5],"70.8 µM [rising, single point]"
same,max response,[6],48.9%
N#C/C(=C\c1ccc(O)c(O)c1)C(=O)NCCCNC(=O)/C(C#N)=C/c1ccc(O)c(O)c1,max response,[1]; [13],-23.1%
same,AC50,[1]; [14],"5.01 µM [falling, partial curve, poor fit]"
same,AC50,[1]; [15],"5.01 µM [falling, partial curve, poor fit]"
same,max response,[1]; [16],-28.9%
same,AC50,[2]; [18],"84.9 µM [falling, single point]"
same,AC50,[7],"5.17 µM [falling, partial curve, poor fit]"
same,viability change,[7],-20.3%
CCOP(=S)(OCC)Oc1nc(Cl)c(Cl)cc1Cl,max response,[1]; [13],46.8%
same,AC50,[1]; [14],"2.82 µM [rising, full curve]"
same,AC50,[1]; [15],"2.82 µM [rising, full curve]"
same,max response,[1]; [16],61.3%
same,max response,[4],81.8% and 111% and 64.5%
same,AC50,[5],"0.398 µM [falling, full curve, poor fit]"
same,AC50,[8],"0.0126 µM [rising, full curve, poor fit]"
same,max response,[6],30.3% and 29.2% and 25.8%
CC[C@H]1CN2CCc3cc(OC)c(OC)cc3[C@@H]2C[C@@H]1C[C@H]1NCCc2cc(OC)c(OC)cc21,max response,[1]; [13],39.8%
same,AC50,[1]; [14],"44.7 µM [rising, single point]"
same,AC50,[1]; [15],"44.7 µM [rising, single point]"
same,max response,[1]; [16],34.5%
same,AC50,[2]; [17],"0.0675 µM [falling, full curve]"
same,AC50,[2]; [18],"0.0757 µM [falling, full curve]"
same,AC50,[7],"1.3 µM [falling, full curve]"
same,viability change,[7],-42.4%
CCOP(=S)(OCC)SCn1c(=O)oc2cc(Cl)ccc21,max response,[1]; [13],30.4%
same,AC50,[1]; [14],"15.8 µM [rising, partial curve]"
same,AC50,[1]; [15],"7.94 µM [rising, partial curve]"
same,max response,[1]; [16],43.9%
same,max response,[6],27.9%
same,max response,[9],5.53%
CN1CCN(C2=Nc3cc(Cl)ccc3Nc3ccccc32)CC1,max response,[1]; [13],73.6% and 38.3% and 63.3%
same,AC50,[1]; [14],"28.2 µM [rising, partial curve, poor fit] and 11.2 µM [rising, partial curve, poor fit]"
same,AC50,[1]; [15],"28.2 µM [rising, partial curve, poor fit] and 15.8 µM [rising, partial curve, poor fit]"
same,max response,[1]; [16],89.4% and 61.8% and 62.5%
same,AC50,[2]; [17],"42.6 µM [falling, partial curve]"
same,AC50,[2]; [18],"47.8 µM [falling, partial curve]"
CCCCN(CC)c1c([N+](=O)[O-])cc(C(F)(F)F)cc1[N+](=O)[O-],max response,[1]; [13],-52.4%
same,AC50,[1]; [14],"25.1 µM [falling, single point]"
same,AC50,[1]; [15],"28.2 µM [falling, partial curve]"
same,max response,[1]; [16],-78.3%
same,max response,[6],10.7%
O=C1CC2(CCCC2)CC(=O)N1CCCCN1CCN(c2ncccn2)CC1,max response,[1]; [13],57.8%
same,AC50,[1]; [14],"15.8 µM [rising, partial curve, poor fit]"
same,AC50,[1]; [15],"15.8 µM [rising, partial curve, poor fit]"
same,max response,[1]; [16],67.5%
same,AC50,[2]; [18],"84.9 µM [falling, single point]"
same,viability change,[7],0.854%
O=C(O)c1nn(Cc2ccc(Cl)cc2Cl)c2ccccc12,AC50,[10],"15.8 µM [rising, partial curve]"
same,max response,[1]; [13],39.7%
same,AC50,[1]; [14],"14.1 µM [rising, partial curve]"
same,AC50,[1]; [15],"15.8 µM [rising, partial curve]"
same,max response,[1]; [16],50.6%
same,AC50,[2]; [18],"95.3 µM [falling, single point]"
same,AC50,[3],"7.31 µM [rising, partial curve]"
CCCCN1C2CCC1CC(OC(c1ccc(F)cc1)c1ccc(F)cc1)C2 (stereo not given),max response,[1]; [13],8.1%
same,AC50,[1]; [14],"1.58 µM [falling, full curve, poor fit]"
same,AC50,[1]; [15],"1.58 µM [falling, full curve, poor fit]"
same,max response,[1]; [16],6.83%
same,AC50,[2]; [17],"33.8 µM [falling, full curve]"
same,AC50,[2]; [18],"33.8 µM [falling, full curve]"
O=C1C=C2C(=CCOC2O)O1 (stereo not given),max response,[1]; [13],-68.5%
same,AC50,[1]; [14],"22.4 µM [falling, partial curve]"
same,AC50,[1]; [15],"3.98 µM [falling, full curve]"
same,max response,[1]; [16],-94.9%
same,AC50,[11],"14.1 µM [falling, full curve, poor fit]"
same,AC50,[12],"31.6 µM [falling, partial curve, poor fit]"
same,max response,[4],-105%
same,AC50,[5],"31.6 µM [falling, partial curve, poor fit]"
same,AC50,[8],"3.55 µM [falling, full curve]"
same,max response,[6],-33.7%
same,max response,[9],-30.2%
